Data published in publication PMC4336329 (PLoS ONE, 2015).
The whole screen tested about 310,000 compounds, of which about 2,200 (0.71%) showed an effect of 50% or more. Effects have a minus sign here. The list shows a part of the results.

Target: human ether-à-go-go-related gene (hERG) potassium channel (human, UniProt Q12809)
Experiment: primary screen, population patch clamp on CHO cells stably expressing hERG

human ether-à-go-go-related gene (hERG) potassium channel, sequence (Q12809 whole entry, looked up): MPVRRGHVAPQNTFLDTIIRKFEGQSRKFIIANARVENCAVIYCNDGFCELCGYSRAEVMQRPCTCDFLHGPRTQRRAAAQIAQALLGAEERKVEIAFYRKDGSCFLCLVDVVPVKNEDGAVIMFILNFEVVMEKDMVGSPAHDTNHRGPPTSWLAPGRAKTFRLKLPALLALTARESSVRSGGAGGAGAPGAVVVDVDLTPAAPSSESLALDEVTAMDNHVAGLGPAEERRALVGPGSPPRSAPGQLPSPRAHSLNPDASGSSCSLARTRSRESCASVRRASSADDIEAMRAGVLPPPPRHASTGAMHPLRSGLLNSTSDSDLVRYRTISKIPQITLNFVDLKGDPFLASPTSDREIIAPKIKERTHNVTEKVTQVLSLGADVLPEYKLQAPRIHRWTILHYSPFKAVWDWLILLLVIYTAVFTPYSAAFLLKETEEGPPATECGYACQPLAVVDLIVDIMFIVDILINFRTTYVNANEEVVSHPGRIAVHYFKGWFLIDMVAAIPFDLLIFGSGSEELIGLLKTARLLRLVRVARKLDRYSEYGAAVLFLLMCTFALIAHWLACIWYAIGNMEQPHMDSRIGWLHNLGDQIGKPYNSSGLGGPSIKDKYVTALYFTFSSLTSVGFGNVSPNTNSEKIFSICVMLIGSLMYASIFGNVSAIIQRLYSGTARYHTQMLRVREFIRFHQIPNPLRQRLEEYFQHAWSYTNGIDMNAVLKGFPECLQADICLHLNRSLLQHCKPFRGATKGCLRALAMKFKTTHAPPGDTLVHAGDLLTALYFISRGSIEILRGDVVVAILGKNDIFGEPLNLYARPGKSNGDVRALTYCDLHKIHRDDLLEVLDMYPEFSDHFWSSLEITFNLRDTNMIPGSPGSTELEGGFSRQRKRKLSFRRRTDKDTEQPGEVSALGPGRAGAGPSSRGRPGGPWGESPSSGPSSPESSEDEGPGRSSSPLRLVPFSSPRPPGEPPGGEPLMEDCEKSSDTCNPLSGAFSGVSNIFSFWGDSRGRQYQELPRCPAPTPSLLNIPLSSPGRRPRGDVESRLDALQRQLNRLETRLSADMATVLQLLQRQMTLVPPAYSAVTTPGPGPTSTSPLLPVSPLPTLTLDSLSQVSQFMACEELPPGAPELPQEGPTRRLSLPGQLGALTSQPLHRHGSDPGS

| SMILES | hERG current change (%, negative = inhibition) at 1uM |
| --- | --- |
| O=C1CSC(=Nc2ccccc2Cl)N1 | 3.64% |
| O=S(=O)(NCc1csc(-c2cccnc2)n1)c1ccc(F)cc1 | 44.7% |
| CC(C)NC(=O)C12CC3CC(C1)CC(C(=O)NC(C)C)(C3)C2 | 5.74% |
| Cc1ccc(NC(=O)c2ccc(OCc3c(C)noc3C)cc2)nc1 | 2.26% |
| CC(C)Cn1c(C(C)C)nc([N+](=O)[O-])c1S(=O)(=O)c1ccc(F)cc1 | -1.31% |
| Cc1ccccc1-n1nc2c(c1NC(=O)c1cccs1)CS(=O)(=O)C2 | 5.26% |
| O=C1C(Cc2ccc(O)cc2)NC(=S)N1c1ccccc1 (centres unmarked) | -0.276% |
| COc1ccc(COC(=O)c2sc3nc4n(c(=O)c3c2C)CCC4)cc1 | 5.84% |
| Cc1ccccc1CN1CCNC(=O)C1CC(=O)NCCN1CCCCC1=O (centres unmarked) | 16.6% |
| COC(=O)c1ccc(CC(=O)c2ccc(O)cc2O)o1 | 14.8% |
| O=C(Nc1nc2ccccc2[nH]1)C1CCCC1 | -0.671% |
| Cc1cccc(N2C(=O)C3CCC(c4ccccc4)CC3C2=O)c1 (centres unmarked) | 9.09% |
| ClC(Cl)(Cl)c1nc(N/N=C/c2ccncc2)c2ccccc2n1 | 20.9% |
| CCCCn1c(N)c(N(CC(C)C)C(=O)c2ccc(C)o2)c(=O)[nH]c1=O | 16.2% |
| C#Cc1cccc(C(=O)N2CCCC(CCC(=O)NCc3ccccc3F)C2)c1 (centres unmarked) | 11.2% |
| CC1Cc2ccccc2N1C(=O)CSc1nncs1 (centres unmarked) | 11.8% |
| Cc1c(C(=O)O)oc2ccc(S(=O)(=O)N3CCCCC3C(=O)O)cc12 (centres unmarked) | 4.79% |
| Cc1ccccc1-c1nnc(CN2CCC(C)CC2)o1.Cl | 3.12% |
| C=CCN1C(=O)C(Cc2cccc(C)c2)SC1=Nc1ccc(C(=O)O)cc1 (centres unmarked) | -24.7% |
| CCn1nnc(NC(=O)C(C)(c2ccccc2)c2ccccc2)n1 | 1.68% |
| Cc1cc(C)c(NC(=S)N(CCCN2CCOCC2)Cc2cccnc2)c(C)c1 | 9.56% |
| CCC1CCCCN1CCNC(=O)c1[nH]c(C)c(C(C)=O)c1C (centres unmarked) | 7.76% |
| COCCCNc1ncnc2c1nc1n2CCCC1 | 13.4% |

| SMILES | hERG current change (%, negative = inhibition) at 1uM |
| --- | --- |
| CNC(=O)c1nn(-c2ccc(C)cc2)ccc1=O | 4.2% |
| O=C(NCc1ccccc1)C1=C[C@@H](c2ccc(C(F)(F)F)cc2)C[C@@H](OCc2ccc(CO)cc2)O1 | 8.89% |
| c1ccc(Nc2nc(-c3ccncc3)cs2)nc1 | 3.98% |
| CCOC(=O)C(NC(=O)c1ccc(OC)cc1)(OCC1(CC)COC1)C(F)(F)F (centres unmarked) | 18.8% |
| Cc1ccc(-c2nc3ncccn3c2NC(=O)C2CC2)cc1 | 15.1% |
| Cc1cccc(C)c1OCCNC(=O)OCc1ccccc1 | 6.49% |
| CCS(=O)(=O)c1nc(S(=O)(=O)c2ccc(C)cc2)c(NCCCN(C)C)s1 | 14.9% |
| Cc1ccc(-c2nnc(SCC(=O)Nc3nc4c(s3)CCCC4)n2C)cc1 | 9.74% |
| CO/C([O-])=N/c1c[n+](-c2ccc(Cl)cc2)no1 | 5.81% |
| C=CCn1c(C)cc(C(=O)CSc2nnc(C3CC3)n2C2CC2)c1C | 9.16% |
| CC1CC(C)CN(C(=O)c2ccc3c(c2)N(Cc2ccccc2)CCS3)C1 (centres unmarked) | 9.52% |
| COc1ccc(/C(C)=N/NC(=O)CNC(=O)c2cccnc2)cc1OC | 11.6% |
| CCS(=O)(=O)c1nc(S(=O)(=O)c2ccc(C)cc2)c(NCCN2CCOCC2)s1 | 12.6% |
| O=C(O)C1CCCCC1C(=O)Nc1ccc(Cl)cc1Cl (centres unmarked) | 7.45% |
| CN(C)CCCNC(=S)N(CCN(C)C)Cc1cc2cc3c(cc2[nH]c1=O)OCCO3 | 10.5% |
| COc1cc(/C=N/NC(N)=S)ccc1OCC(=O)Nc1ccc(C)c(C)c1 | -11.6% |
| Cc1ccc(C)c(Oc2ccc(S(=O)(=O)N3CCN(C)CC3)cn2)c1 | 5.49% |
| Cc1ccccc1NC(=O)COC(=O)CCc1nc2ccccc2c(=O)[nH]1 | 9.23% |
| NCC(O)COCCC12CC3CC(CC(C3)C1)C2 (centres unmarked) | 10.3% |
| COCCN(Cc1cccs1)S(=O)(=O)c1csc(C(N)=O)c1 | -2.6% |
| CC(CC(=O)O)NCC1COc2ccccc2O1 (centres unmarked) | 11.4% |
| Cc1cnc(C(=O)Nc2cc(S(=O)(=O)N3CCOCC3)ccc2N2CCN(C)CC2)cn1 | 3.2% |
| COC(=O)c1ccccc1C(=O)N1CCOCCN(C(=O)c2ccccc2C(=O)OC)CCOCC1 | 10.3% |

| SMILES | hERG current change (%, negative = inhibition) at 1uM |
| --- | --- |
| Br.Cc1ccc(C2Cc3cc(O)c(O)cc3CN2)cc1 (centres unmarked) | 13.4% |
| CCOc1ccc2nc(NCCNS(=O)(=O)c3ccccc3)c(C#N)cc2c1 | 10.2% |
| CC(C)(C)c1ccc(C(=O)Nc2cccc(C(=O)N3CCOCC3)c2)cc1 | -15.7% |
| CC(C)(NC(=O)N1CCCC1)c1cccc(C(C)(C)NC(=O)N2CCCC2)c1 | 7.35% |
| Cc1cccc(CNC(=O)CCCn2nc(C)c3c(C)n(-c4ccccc4)nc3c2=O)c1 | 11.2% |
| CN(CCc1ccccn1)C1CCCN(S(=O)(=O)c2ccccc2Cl)C1 (centres unmarked) | -5.21% |
| O=C(COC(=O)c1cccc(Cl)c1)NC1CCCCCCC1 | 4.7% |
| O=S(=O)(c1ccccc1)c1nc(-c2ccco2)oc1N1CCCCC1 | 6.76% |
| CCCN(CC(=O)Nc1ccccc1C)C(=O)c1cn2ccccc2n1 | 7.74% |
| CC(C)C(C)(C#N)NC(=O)CSc1nc2scc(-c3ccco3)c2c(=O)n1-c1ccccc1 (centres unmarked) | 13.5% |
| CN(Cc1cccs1)C(=O)Cc1c[nH]c2ccccc12 | 8.74% |
| CCOC(=O)c1ccccc1-c1csc(N)n1 | 20.6% |
| CCCCN(Cc1cc2cc(C)ccc2[nH]c1=O)C(=O)c1ccccn1 | 0.537% |
| Cc1sc2nc(-c3ccccc3)[nH]c(=O)c2c1-c1ccccc1 | 9.71% |
| Cc1ccc(C)c2[nH]c(=O)c(CCNC(=O)c3cc4ccccc4o3)cc12 | -0.899% |
| COC(=O)c1cc(OC)c(OC)cc1NC(=O)CSc1ccc(C)cc1 | 3.79% |
| COc1ccc(NC(=O)CNC(=O)Cc2ccccc2)cc1OC | 12.7% |
| CCOP(=O)(Cc1ccc(C(=O)CC)o1)OCC | 12.7% |
| CCc1noc(C)c1C(=O)OCC(=O)c1ccccc1OC | 12.7% |
| N#C/C(=C\c1ccncc1)c1ccccn1 | 12.7% |
| Cc1cc(C)nc(SCC(=O)Oc2ccc3oc(=O)cc(C)c3c2)n1 | 7.52% |
| Cc1cc(C)c2nc(N3CCC(C(=O)NCCCN4CCCC4=O)CC3)sc2c1 | 3.19% |
| CCOC(=O)c1csc(-c2sccc2Br)n1 | 4.39% |

| SMILES | hERG current change (%, negative = inhibition) at 1uM |
| --- | --- |
| COc1ccc(OC)c2sc(Cl)nc12 | -0.621% |
| COc1ccc(CCn2c(-c3cccc([N+](=O)[O-])c3)nc3nc4ccccc4nc32)cc1OC | 12.8% |
| CCCN(CC(=O)Nc1ccccc1C)C(=O)C1CC(=O)N(c2ccc(CC)cc2)C1 (centres unmarked) | 3.1% |
| S=c1nc(C2CCCCC2)n(-c2ccccc2)[nH]1 | 12.6% |
| COc1ccc(CN=C2NN=C(c3cccc(OC)c3)CS2)cc1 | -7.23% |
| C=C(C)CNC(=S)Nc1sc2c(c1C(=O)OCC)CC(C)(C)OC2 | 17.8% |
| Cc1ccc(/C=N/n2cnc3sc4c(c3c2=O)CCCC4)o1 | 6.89% |
| Cc1ccc(-n2c(C)cc(=O)cc2C)cc1[N+](=O)[O-] | 20.1% |
| Cc1ccc(C)c(NC(=S)c2ccccn2)c1 | 14.6% |
| CC(C)CCNC(=O)C(c1ccncc1)N(Cc1cccs1)C(=O)Cn1nnc(-c2ccc(F)cc2)n1 (centres unmarked) | -1.77% |
| CCc1c(C)sc(NC(=O)c2cc(C3CC3)on2)c1C#N | 9.6% |
| Cc1ccc(NC(=O)CN(C)S(=O)(=O)c2ccc(Cl)s2)c(O)c1 | 9.12% |
| COc1ccccc1C(=O)n1nc(C)cc1C | -2.23% |
| COC(=O)CNC(=O)Cn1cnc2sc(C)c(S(=O)(=O)N3CCC(C)CC3)c2c1=O | 2.8% |
| COC(=O)c1ccc2c(c1)S(=O)(=O)NC(=NCc1ccco1)S2 | -9.48% |
| CCCCSc1nnc(CCC)n1N | -1.36% |
| c1ccc(-c2nnc(C(c3ccccc3)c3ccccc3)o2)cc1 | 11.1% |
| CN1CCN(C(=O)c2ccccc2NC(=O)c2ccccc2)CC1 | -1.69% |
| Cc1nc(Nc2ccccc2)sc1C(=O)c1ccc(F)cc1 | 14% |
| CCOc1ccc(CN2CCCC(N3CCN(c4ccc(OC)cc4)CC3)C2)cc1 (centres unmarked) | -21.3% |
| CCOC(=O)c1csc(NC(=O)c2cc3ccccc3o2)n1 | 10.6% |
| O=C(Nc1cccc(F)c1)Nc1ccnn1C1CCN(C(=O)c2ccccn2)CC1 | 5.12% |
| CC(C)(Oc1ccc(Cl)cc1)C(=O)NCC(c1ccco1)N1CCCCC1 (centres unmarked) | 1.95% |
